Data published in the supplement of paper PMC4967469.
IC50 is the fitted dose that halves viability relative to control wells, and lower means more sensitive; fits outside the tested doses are given as limits. AUC is the area under the same curve over the 256-fold range up to the top dose, as a fraction; the more sensitive the line, the further below 1. For some of these results: Where the top dose is marked as inferred, it is not printed in the source and was worked back from the curve model.

Legend:
Assay in all cases: Viability of human cancer cell lines after 72 h of drug (GDSC screen)
Temozolomide = compound: Cn1nnc2c(C(N)=O)ncn2c1=O [Temozolomide]; details: top dose 30 µM
Description: (§1)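 Human cancer cell lines in 384-well plates, medium with 10% serum, drug for 72 h over a 256-fold dose range (nine 2-fold or five 4-fold steps up to the top dose). Adherent lines were fixed and stained with the nucleic acid dye Syto60, suspension lines read with resazurin; signal relative to control wells, capped at 0 and 100%. One two-parameter sigmoid per drug and line, fitted in a mixed model over all curves with the slope shared within a line.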

Z-LLNle-CHO = compound: CCCC[C@@H](C=O)NC(=O)[C@H](CC(C)C)NC(=O)[C@H](CC(C)C)NC(=O)OCc1ccccc1 [Z-LLNle-CHO]; details: top dose 2.56 µM; top dose inferred
Description: as §1

CI-1040 = compound: O=C(NOCC1CC1)c1ccc(F)c(F)c1Nc1ccc(I)cc1Cl [CI-1040]; details: top dose 10 µM; top dose inferred
Description: as §1

Tubastatin A = compound: CN1CCc2c(c3ccccc3n2Cc2ccc(C(=O)NO)cc2)C1 [Tubastatin A]; details: top dose 20 µM
Description: as §1

JW-7-52-1 = compound: CCC(=O)N1CCN(c2ccc(-n3c(=O)ccc4cnc5ccc(-c6cnc7ccccc7c6)cc5c43)cc2C(F)(F)F)CC1 [JW-7-52-1]; details: top dose 1.2 µM; top dose inferred
Description: as §1

Rapamycin = compound: CO[C@H]1C[C@@H]2CC[C@@H](C)[C@@](O)(O2)C(=O)C(=O)N2CCCC[C@H]2C(=O)O[C@H]([C@H](C)C[C@@H]2CC[C@@H](O)[C@H](OC)C2)CC(=O)[C@H](C)/C=C(\C)[C@@H](O)[C@@H](OC)C(=O)[C@H](C)C[C@H](C)/C=C/C=C/C=C/1C [Rapamycin]; details: top dose 0.1 µM; top dose inferred
Description: as §1

IPA-3 = compound: Oc1ccc2ccccc2c1SSc1c(O)ccc2ccccc12 [IPA-3]; details: top dose 32 µM; top dose inferred
Description: as §1

ZG-10 = compound: CN(C)C/C=C/C(=O)Nc1ccc(C(=O)Nc2cccc(Nc3nccc(-c4cccnc4)n3)c2)cc1 [ZG-10]; details: top dose 10 µM; top dose inferred
Description: as §1

XL-880 = compound: COc1cc2c(Oc3ccc(NC(=O)C4(C(=O)Nc5ccc(F)cc5)CC4)cc3F)ccnc2cc1OCCCN1CCOCC1 [XL-880]; details: top dose 5.12 µM; top dose inferred
Description: as §1

Cell Line | AUC (Temozolomide) | IC50 (Temozolomide) [nM] | AUC (Z-LLNle-CHO) | IC50 (Z-LLNle-CHO) [nM] | AUC (CI-1040) | IC50 (CI-1040) [nM] | AUC (Tubastatin A) | IC50 (Tubastatin A) [nM] | AUC (JW-7-52-1) | IC50 (JW-7-52-1) [nM] | AUC (Rapamycin) | IC50 (Rapamycin) [nM] | AUC (IPA-3) | IC50 (IPA-3) [nM] | AUC (ZG-10) | IC50 (ZG-10) [nM] | AUC (XL-880) | IC50 (XL-880) [nM]
KM12 (large intestine, adherent) | 0.984 | > 30000 | 0.862 | 2500 | 0.738 | 3190 | 0.935 | > 20000 | 0.514 | 82.3 | 0.963 | > 100 | 0.971 | > 32000 | 0.939 | > 10000 |  | 
NB7 (neuroblastoma, adherent) | 0.98 | > 30000 | 0.949 | > 2560 |  |  | 0.971 | > 20000 | 0.983 | > 1200 | 0.944 | > 100 | 0.816 | 18800 | 0.706 | 2460 | 0.502 | 325
NB69 (neuroblastoma, adherent) |  |  | 0.834 | 1410 | 0.642 | 1460 | 0.953 | > 20000 | 0.694 | 244 | 0.916 | > 100 | 0.674 | 5730 | 0.681 | 1880 | 0.425 | 204
IST-MES1 (mesothelioma, adherent) | 0.957 | > 30000 | 0.854 | 2050 |  |  | 0.972 | > 20000 | 0.678 | 237 | 0.983 | > 100 | 0.904 | > 32000 | 0.74 | 3040 | 0.68 | 1020
NB5 (neuroblastoma, adherent) | 0.985 | > 30000 | 0.862 | 2230 | 0.778 | 4100 | 0.987 | > 20000 | 0.542 | 97.7 | 0.917 | > 100 | 0.837 | 21800 | 0.793 | 4640 |  | 
NB6 (neuroblastoma, adherent) |  |  | 0.916 | > 2560 | 0.962 | > 10000 | 0.934 | > 20000 | 0.459 | 56.5 | 0.957 | > 100 | 0.673 | 6840 | 0.905 | > 10000 | 0.576 | 541
LB771-HNC (head and neck, adherent) | 0.98 | > 30000 | 0.78 | 1340 |  |  | 0.968 | > 20000 | 0.499 | 74.4 | 0.904 | > 100 | 0.982 | > 32000 | 0.766 | 4610 | 0.653 | 953
RS4-11 (leukaemia, suspension) | 0.975 | > 30000 | 0.666 | 444 |  |  | 0.759 | 6430 | 0.458 | 58.3 | 0.972 | > 100 | 0.85 | 21100 | 0.611 | 1220 | 0.316 | 103
SK-MEL-2 (melanoma, adherent) |  |  | 0.916 | > 2560 | 0.5 | 624 | 0.986 | > 20000 | 0.725 | 335 | 0.961 | > 100 | 0.987 | > 32000 | 0.583 | 1060 | 0.964 | > 5120
NH-12 (neuroblastoma, adherent) |  |  | 0.983 | > 2560 | 0.774 | 4400 | 0.838 | 16000 | 0.942 | > 1200 | 0.969 | > 100 | 0.63 | 4770 | 0.885 | > 10000 | 0.591 | 586
BT-474 (breast, adherent) | 0.984 | > 30000 | 0.979 | > 2560 | 0.986 | > 10000 | 0.934 | > 20000 | 0.71 | 319 | 0.918 | > 100 | 0.712 | 8600 | 0.721 | 2880 |  | 
SKM-1 (haematopoietic neoplasm, suspension) | 0.947 | > 30000 | 0.961 | > 2560 |  |  |  |  | 0.973 | > 1200 | 0.967 | > 100 |  |  | 0.62 | 1390 |  | 
COLO-829 (melanoma, adherent) | 0.971 | > 30000 | 0.852 | > 2560 |  |  | 0.962 | > 20000 | 0.664 | 267 | 0.978 | > 100 | 0.978 | > 32000 | 0.839 | > 10000 | 0.708 | 1660
LOXIMVI (melanoma, semi-adherent) | 0.934 | > 30000 | 0.853 | 1680 |  |  | 0.984 | > 20000 | 0.623 | 157 | 0.96 | > 100 | 0.887 | 29100 | 0.663 | 1670 | 0.68 | 955
IST-SL2 (small cell lung carcinoma, suspension) | 0.979 | > 30000 | 0.77 | 965 | 0.904 | > 10000 | 0.988 | > 20000 | 0.49 | 70.5 | 0.695 | 21.9 | 0.726 | 8720 | 0.907 | > 10000 |  | 
Hs-445 (Hodgkin lymphoma, suspension) | 0.972 | > 30000 | 0.822 | 1360 |  |  | 0.962 | > 20000 | 0.871 | 984 | 0.95 | > 100 | 0.687 | 6370 | 0.778 | 3750 | 0.734 | 1400
